Values joined by “and” are separate entries in the source; they are usually repeats but may differ in a detail not shown here. Equal values may be shown once. Hit rate of the full screen: of about 420,000 compounds, about 50,000 (12%) were called active. Inconclusive means that the source gave no clear call. Such entries were picked first, then a sample of the others. The call rests on the fitted dose curve; in most records, active means well fitted inhibition curve with a large enough effect; inconclusive means small, poorly fitted or top-dose-only effect; inactive means flat fitted curve, though single readings scatter. Potencies of inconclusive entries are left out as doubtful fits. A structure can be active in one record and inactive in another.
Assay: qHTS for Inhibitors of human tyrosyl-DNA phosphodiesterase 1 (TDP1): qHTS in cells in presence of CPT; further: nearly all actives have a fitted effect of over 55% in size
Conditions: chicken DT40 Tdp1-/-;hTDP1 cells + 20 nM CPT, ATP luminescence, 48 h; activity change, negative = growth inhibition: at 46.2 µM (top of the series) unless noted
How it was run: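 Chicken DT40 Tdp1-/- cells stably complemented with human TDP1 were seeded at 400 cells/well in medium containing 20 nM camptothecin, exposed to pin-transferred compounds, and grown at 37 °C for at least 48 hr. Viability was read as ATP luminescence.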
On the % scale 0 is the no-effect control and ±100 the full control effect; potency means the concentration at half of the fitted maximal effect; tags describe the fitted curve by direction and shape.

SMILES | Potency | activity change, negative = growth inhibition
CSc1nsc(SC)c1C(=O)Nc1ccc(C)cc1 | inconclusive [inhibitor, single point] | –
NC(=O)C1(C(N)=O)OC1c1ccc(Cl)cc1Cl (stereo unspecified) | inconclusive [inhibitor, single point] | –
CCc1ccc(NC(=O)c2ccc3c(O)c(S(=O)(=O)c4ccc(Cl)cc4)c(=O)[nH]c3c2)cc1 | inactive | –
CN(CC(=O)Nc1ccccc1Cl)C(=O)C1CCN(S(=O)(=O)c2ccc3c(c2)OCCO3)CC1 | inconclusive [inhibitor, partial curve] | –
COc1ccc(NCC(O)Cn2cnc3c2c(=O)n(C)c(=O)n3C)cc1 (stereo unspecified) | inconclusive [inhibitor, single point] | –
Cc1ccc(C)c(NC(=O)CN2C(=O)CCc3ccccc32)c1 | inactive | –
C=Cn1cc[n+](CC(=O)c2ccc(Br)cc2)c1 | inconclusive [inhibitor, partial curve] | –
CS(=O)(=O)c1ccc(Sc2nc3ccccc3[nH]2)c([N+](=O)[O-])c1 | inconclusive [inhibitor, single point] | –
CS(=O)(=O)c1ccc(C(=O)NNC(=O)c2cccs2)cc1 | inactive | –
CCN(CC)c1cc(C)c2cc(NC(=O)c3cccc(OC)c3)ccc2n1 | inconclusive [inhibitor, single point] | –
COc1cc(OC)cc(-c2c(-c3ccc(F)cc3)c3cc(-c4ccc(SC)cc4)ccc3n2C)c1 | inconclusive [inhibitor, single point] | –
NS(=O)(=O)c1ccc(NC(=S)NC(=O)c2ccco2)cc1 | inactive | –
COCCNC(=O)c1cnn2c1NC(c1ccco1)CC2C(F)(F)F (stereo unspecified) | inactive | –
Cc1cccc(NS(=O)(=O)c2cc3c4c(c2)CC(=O)N4CCC3)c1C | inconclusive [inhibitor, single point] | –
CCc1ccc(-c2nc(CSCC(=O)N3CCN(c4ncccn4)CC3)c(C)o2)cc1 | inconclusive [inhibitor, single point] | –
Cc1ccccc1CN1CCN(S(=O)(=O)c2ccc(F)cc2)CC1 | inconclusive [inhibitor, single point] | –
CC1Sc2ccc(S(=O)(=O)CCC(=O)Nc3ccc(C(C)C)cc3)cc2NC1=O (stereo unspecified) | inconclusive [inhibitor, single point] | –
Cc1cc(N2CCN(c3ccccc3)CC2)n2cc(-c3ccccc3)nc2n1 | inconclusive [inhibitor, single point] | –
Cc1cc(C)c2nc(SC(C)C(=O)NCC(=O)Nc3ccc(F)c(F)c3F)cc(C)c2c1 (stereo unspecified) | inconclusive [inhibitor, single point] | –
COc1ccc(OCCNC(=O)/C=C/c2ccc([N+](=O)[O-])cc2)cc1 | inconclusive [inhibitor, partial curve] | –
CCOC(=O)[C@]12CCCC=C1N(Cc1ccc3c(c1)OCO3)C(=O)[C@H](CC(=O)NCc1ccc(OC)c(OC)c1)C2 | inconclusive [inhibitor, single point] | –
CCCCOC(=O)c1ccc(NC(c2ccc(C)cc2)P(=O)(OC)OC)cc1 (stereo unspecified) | inconclusive [inhibitor, single point] | –
CCCN(CCC)CCOc1cc(C)ccc1C(C)C | inconclusive [inhibitor, partial curve, poor fit] | –
CCOC(=O)C1CCCN(S(=O)(=O)c2ccc(F)c(C(=O)Nc3ccc(F)c(F)c3)c2)C1 (stereo unspecified) | inactive and active: 23.1 µM | –

SMILES | Potency | activity change, negative = growth inhibition
COc1cccc(CNC(=O)C2CCCN(c3nn4c(=O)cc(C)nc4s3)C2)c1 (stereo unspecified) | inactive | –
c1cnc(NC2C3CC4CC(C3)CC2C4)nc1 (stereo unspecified) | inconclusive [inhibitor, partial curve] | –
COc1ccc(C(=O)OCC(=O)Nc2c(C)n(C)n(-c3ccccc3)c2=O)cc1OC | inactive | –
C=CCNCc1ccc(C(=O)NCCCCCCC)cc1[N+](=O)[O-] | inconclusive [inhibitor, single point] | –
CCCNC(=O)c1cccc(Cn2nc(C)c(Br)c2C)c1 | active: 16.4 µM | –
Cc1ccccc1CNC(=O)c1cnc2sc(N3CCOCC3)nn2c1=O | inconclusive [inhibitor, single point] | –
CCCOc1ccc(CCC(=O)N/N=C/c2ccc([N+](=O)[O-])o2)cc1 | active: 16.4 µM | –
Cc1ccc(-c2nc3c4ccccc4n(CC(=O)N4CCN(c5ccccc5F)CC4)c(=O)n3n2)cc1 | inactive | –
CC(=O)c1c(CSc2ccccc2)oc2ccc(O)c(CN(C)C)c12 | active: 23.1 µM | –
Cc1cccc(Cn2c(C(C)(C)C)cc3cccnc32)c1 | inconclusive [inhibitor, single point] | –
Cc1cccc(OCc2ccc(C(=O)Nc3cc(C)on3)o2)c1 | inactive | –
O=C(NCc1ccccn1)c1cn(-c2ccccc2)nc1-c1ccc(Cl)cc1 | inconclusive [inhibitor, partial curve] | –
NS(=O)(=O)c1ccc(CNC(=O)c2cc(S(=O)(=O)N3CCOCC3)c(Cl)cc2Cl)cc1 | inactive | –
CSc1ccc(C(=O)/C=C/c2ccc(N)cc2)cc1 | inactive | –
Cc1cc(S(=O)(=O)N2CCCC(N(C)CCc3ccccn3)C2)c(C)cc1Cl (stereo unspecified) | active: 20.6 µM | –
COCC(C)NCc1cc2ccc(OC)cc2nc1N1CCN(c2ccc(F)cc2)CC1 (stereo unspecified) | – | inactive: -5.76% [at 9.04 µM]
COc1ccc(CC(=O)NCCS(=O)(=O)N2CCN(c3ccccc3)CC2)cc1OC | inconclusive [inhibitor, partial curve] | –
CCOc1ccc(CCNC(=O)Cn2nc(C)n3c(cc4occc43)c2=O)cc1OCC | inactive | –
O=[N+]([O-])c1cc(/C=N/n2c(-c3cccnc3)n[nH]c2=S)ccc1Cl | inconclusive [inhibitor, single point] | –
Cc1cc2cc(CNC(=O)c3cccs3)ccc2n1C | inconclusive [inhibitor, single point] | –
CC(C)C(N)c1csc(Nc2ccc(C(=O)N(C)Cc3ccccc3)cn2)n1 (stereo unspecified) | inconclusive [inhibitor, single point] | –
CCCC(C)CO (stereo unspecified) | inactive | –
CCOc1ccc(S(=O)(=O)N2CCOCC2)cc1NC(=O)CCN1C(=O)NC2(CCCC2)C1=O | inactive | –
COc1ccc(N2CCN(C(=O)c3cccc(F)c3)CC2)c([N+](=O)[O-])c1 | inconclusive [inhibitor, single point] | –

SMILES | Potency | activity change, negative = growth inhibition
COc1cccc(C(O)c2nc3ccccc3n2C(C)C)c1 (stereo unspecified) | inactive | –
C=CCn1c(C)cc(C(=O)CSc2nnc(-c3cccc(S(=O)(=O)N(CC)CC)c3)o2)c1C | inconclusive [inhibitor, single point] | –
COc1ccc(CCNC(=O)Cn2c(=O)n(-c3ccc(F)cc3)c(=O)c3sccc32)cc1OC | inconclusive [inhibitor, partial curve] | –
CCc1nc2ccc(C(=O)NCCc3ccccn3)cn2c1N(C)Cc1ccc(N(C)C)cc1 | inconclusive [inhibitor, single point] | –
Cc1cc(NC(=O)CSc2nc(=O)n(CCN(C)C)c3c2CCCC3)no1 | inactive | –
CC(/C=C(\NC(=O)c1ccccc1)C(=O)N=Nc1c(O)[nH]c2ccc(C)cc12)=C\c1ccccc1 | active: 8.2 µM | –
Cc1nn(C)c(NC(=O)c2ccc(Cl)cc2Cl)c1Br | inconclusive [inhibitor, single point] | –
CC(C)COc1ccc(CNC(=S)NCc2ccccc2)cc1 | inconclusive [inhibitor, single point] | –
O=C(C[n+]1ccccc1Cl)c1ccccc1 | inactive | –
Nn1c(SCc2ccc([N+](=O)[O-])cc2)nc2ccccc2c1=O | inactive | –
O=C(CCl)Nc1cccc(-c2cnc3ccccc3n2)c1 | active: 2.91 µM | –
COc1ccc(NS(=O)(=O)c2ccc(OC)c3ccccc23)cn1 | inconclusive [inhibitor, single point] | –
CC1(C)c2ccccc2-n2c1cc1oc(=O)cc(O)c1c2=O | inconclusive [inhibitor, single point] | –
CC1(Oc2ccccc2-c2ccn[nH]2)CCN(Cc2ccc(OC(F)(F)F)cc2)C1 (stereo unspecified) | inconclusive [inhibitor, single point] | –
O=C(NC1CCCCCC1)c1cc2n(n1)C(C(F)(F)F)CC(c1ccco1)N2 (stereo unspecified) | – | inconclusive: -33.2% [inhibitor]
CCN(CC(=O)Nc1ccccc1C(F)(F)F)C(=O)c1cc(-c2cccs2)nn1-c1ccccc1 | inconclusive [inhibitor, single point] | –
CCN(CCNC(=O)C1CCN(S(=O)(=O)c2cccc3cccnc23)CC1)c1ccccc1 | inconclusive [inhibitor, partial curve] | –
CC(=O)NC(=S)NNC(=O)c1ccc(Br)cc1 | active: 6.51 µM | –
CCOC(=O)C1=C[C@@H](C2CCCCC2)N(S(=O)(=O)c2ccc([N+](=O)[O-])cc2)[C@H]1c1ccccc1 | active: 20.6 µM | –
Cc1nnc(SCC(=O)N2CCCC2)n(N)c1=O | inactive | –
COc1ccc(Oc2ncc3nc(C)c(=O)n(C4CC4)c3n2)cc1 | inconclusive [inhibitor, single point] | –
CCN(CC(=O)Nc1ccc(NC(C)=O)cc1)C(=O)c1ccc(N(C)S(=O)(=O)c2ccc(C)cc2)cc1 | active: 25.9 µM | –
CC(C)c1cc(C(=O)N/N=C/c2cccnc2)n[nH]1 | inactive | –

Reference: PubChem BioAssay AID686979 (National Center for Advancing Translational Sciences (NCATS), 2013)
